# “And” between values parts separate entries of the source, which are not always exact repeats. Identical values can stand only once. Counter-ions that a name gives are not always drawn. Screen size: about 5,800 compounds; about 620 (11%) showed activity.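 The calls were made as follows: active = score above a cut-off or among the top three wells of a plate; in these data no inactive exceeds 0.85.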 The entries are a selection whose mix differs from that of the whole data set.
# Tested on: primary human hepatic stellate cells (donor 1)
# Test: scaled lipid accumulation score (0 = DMSO-like, 1 = nortriptyline-like); higher = stronger HSC inactivation (lipid re-accumulation), active = hit call of the paper
# Conditions: 48 h
# [1] = library stock concentration: 1 mM
# [2] = library stock concentration: 10 mM
# [3] = library stock concentration: 3.33 mM
# [4] = library stock concentration: 6.3 mM
# [5] = library stock concentration: 80 uM
# [6] = library stock concentration: 400 uM
# [7] = library stock concentration: 2 mM
structure (smiles),measurement,setting,value
"CCCCCCCC/C=C\CCCCCCCC(=O)OCC(CO)OC(=O)CCCCCCC/C=C\CCCCCCCC (centres undefined) [1,2-Dioleoyl-glycerol (18:1)]",scaled lipid accumulation score,[1],inactive: 0.004
O=C1C(SCCO)=C(SCCO)C(=O)c2ccccc21,scaled lipid accumulation score,[2],inactive: 0.156
Cc1cc2nc3c(=O)[nH]c(=O)nc-3n(CC(O)C(O)C(O)COP(=O)(O)O)c2cc1C (centres undefined),scaled lipid accumulation score,[2],inactive: ≤ 0
COc1cc(/C=C/C(=O)CC(=O)/C=C/c2ccc(O)c(OC)c2)ccc1O [Curcumin],scaled lipid accumulation score,[1],inactive: ≤ 0
same,scaled lipid accumulation score,[3],inactive: ≤ 0
same,scaled lipid accumulation score,[2],inactive: ≤ 0
same,scaled lipid accumulation score,library stock concentration: 13.6 mM,inactive: 0.799
CN1CCC(OC(c2ccccc2)c2ccccc2)CC1 [Diphenylpyraline hydrochloride],scaled lipid accumulation score,,inactive: 0.332
same,scaled lipid accumulation score,[4],inactive: 0.256
same,scaled lipid accumulation score,[2],inactive: 0.235
FC(F)(F)c1cccc(-c2noc(-c3cc(-c4ccccc4)c(C(F)(F)F)s3)n2)c1,scaled lipid accumulation score,[1],inactive: ≤ 0
same,scaled lipid accumulation score,[2],inactive: ≤ -0.001
O=C(Oc1cccc2cccnc12)c1ccccc1 [Benzoxiquine],scaled lipid accumulation score,library stock concentration: 8 mM,inactive: ≤ 0
CCOC(=O)[C@H](CCc1ccccc1)N[C@@H](C)C(=O)N1Cc2cc(OC)c(OC)cc2C[C@H]1C(=O)O [Moexipril HCl],scaled lipid accumulation score,[3],inactive: ≤ 0
same,scaled lipid accumulation score,[2],inactive: ≤ 0
CCOC(=O)[C@H](CCc1ccccc1)N[C@@H](C)C(=O)N1Cc2cc(OC)c(OC)cc2C[C@H]1C(=O)O [Moexipril hydrochloride],scaled lipid accumulation score,[2],inactive: 0.011
CCCCC/C=C/C/C=C/CCCCCCCC(=O)O [Linoelaidic Acid],scaled lipid accumulation score,[1],inactive: 0.006
O=c1[nH]cnc2[nH]ncc12 [Allopurinol Sodium],scaled lipid accumulation score,[3],inactive: ≤ 0
same,scaled lipid accumulation score,[2],inactive: ≤ 0
CN1CCN(C2CCN(C(=O)Nc3cc(Oc4ccc(NC(=O)C5(C(=O)Nc6ccc(F)cc6)CC5)c(F)c4)ccn3)CC2)CC1 [Golvatinib (E7050)],scaled lipid accumulation score,[2],inactive: 0.429
C[N+](C)(C)CCO.[Cl-] [Choline Chloride],scaled lipid accumulation score,[3],inactive: ≤ 0
same,scaled lipid accumulation score,[2],inactive: 0.043
C[N+](C)(C)CCO.[Cl-] [Choline chloride],scaled lipid accumulation score,[2],inactive: ≤ -0.027
same,scaled lipid accumulation score,library stock concentration: 14.3 mM,inactive: ≤ 0
Cn1cc(-c2ccc3nnc(Sc4ccc5ncccc5c4)n3n2)cn1,scaled lipid accumulation score,[5],inactive: 0.027
same,scaled lipid accumulation score,[6],inactive: 0.012
same,scaled lipid accumulation score,[7],inactive: 0.018
same,scaled lipid accumulation score,[3],inactive: ≤ 0
same,scaled lipid accumulation score,[2],inactive: ≤ 0 and inactive: 0.041
Clc1ccc(Nc2nnc(Cc3ccncc3)c3ccccc23)cc1 [Vatalanib (PTK787) 2HCl],scaled lipid accumulation score,[3],inactive: ≤ 0
same,scaled lipid accumulation score,[2],inactive: ≤ 0
Clc1ccc(Nc2nnc(Cc3ccncc3)c3ccccc23)cc1 [Vatalanib],scaled lipid accumulation score,library stock concentration: 5.8 mM,inactive: ≤ -0.006
Cc1cc(O)c2c(c1)C(=O)c1cc(O)cc(O)c1C2=O [Emodin],scaled lipid accumulation score,[3],inactive: ≤ 0
same,scaled lipid accumulation score,[2],inactive: ≤ 0 and inactive: ≤ -0.07
O=C1NC(=O)/C(=C/c2cccc(C(F)(F)F)c2)S1,scaled lipid accumulation score,[6],inactive: ≤ -0.005
same,scaled lipid accumulation score,[7],inactive: ≤ -0.005
same,scaled lipid accumulation score,[3],inactive: ≤ -0.009
same,scaled lipid accumulation score,[2],inactive: 0.01 and inactive: ≤ -0.005
COC(=O)c1ccc2c(C(=Nc3ccc(N(C)C(=O)CN4CCN(C)CC4)cc3)c3ccccc3)c(O)[nH]c2c1,scaled lipid accumulation score,[5],inactive: 0.316
same,scaled lipid accumulation score,[6],inactive: 0.522
same,scaled lipid accumulation score,[7],inactive: 0.258
O=c1[nH]cnc2c1ncn2[C@H]1CC[C@@H](CO)O1 [Didanosine],scaled lipid accumulation score,,inactive: ≤ 0
CN(C/C=C/C#CC(C)(C)C)Cc1cccc2ccccc12 [Terbinafine],scaled lipid accumulation score,[3],inactive: ≤ 0
same,scaled lipid accumulation score,[2],inactive: ≤ 0
CN(C/C=C/C#CC(C)(C)C)Cc1cccc2ccccc12 [Terbinafine hydrochloride],scaled lipid accumulation score,library stock concentration: 6.1 mM,inactive: ≤ 0
CN(C/C=C/C#CC(C)(C)C)Cc1cccc2ccccc12 [Terbinafine HCl],scaled lipid accumulation score,[3],inactive: ≤ 0
same,scaled lipid accumulation score,library stock concentration: 6.9 mM,inactive: ≤ -0.006
same,scaled lipid accumulation score,[2],inactive: ≤ 0
CN(C/C=C/C#CC(C)(C)C)Cc1cccc2ccccc12,scaled lipid accumulation score,[2],inactive: ≤ 0
Nc1nc(O)c2ncn(CCC(CO)CO)c2n1,scaled lipid accumulation score,[2],inactive: ≤ 0
Nc1nc(O)c2ncn(CCC(CO)CO)c2n1 [Penciclovir],scaled lipid accumulation score,[3],inactive: ≤ 0
same,scaled lipid accumulation score,library stock concentration: 7.9 mM,inactive: ≤ 0
same,scaled lipid accumulation score,[2],inactive: ≤ -0.001
Fc1ccc([C@@H]2CCNC[C@H]2COc2ccc3c(c2)OCO3)cc1 [Paroxetine hydrochloride],scaled lipid accumulation score,[2],inactive: 0.808
Fc1ccc([C@@H]2CCNC[C@H]2COc2ccc3c(c2)OCO3)cc1 [Paroxetine],scaled lipid accumulation score,[2],inactive: 0.634
Fc1ccc([C@@H]2CCNC[C@H]2COc2ccc3c(c2)OCO3)cc1 [Paroxetine HCl],scaled lipid accumulation score,[2],inactive: 0.355
Fc1ccc([C@@H]2CCNC[C@H]2COc2ccc3c(c2)OCO3)cc1 [Paroxetine hydrochloride hemihydrate (MW = 374.83)],scaled lipid accumulation score,[2],inactive: 0.836
C[C@H]1COc2c(N3CCN(C)CC3)c(F)cc3c(=O)c(C(=O)O)cn1c23 [Levofloxacin],scaled lipid accumulation score,[3],inactive: ≤ 0
same,scaled lipid accumulation score,[2],inactive: ≤ 0 and inactive: 0.019
C[C@H]1COc2c(N3CCN(C)CC3)c(F)cc3c(=O)c(C(=O)O)cn1c23,scaled lipid accumulation score,[2],inactive: ≤ 0
CN(C)CCCN1c2ccccc2CCc2ccccc21 [Imipramine HCl],scaled lipid accumulation score,library stock concentration: 7.1 mM,inactive: 0.618
CN(C)CCCN1c2ccccc2CCc2ccccc21,scaled lipid accumulation score,[2],inactive: 0.493
CN(C)CCCN1c2ccccc2CCc2ccccc21 [Imipramine hydrochloride],scaled lipid accumulation score,,inactive: 0.652
same,scaled lipid accumulation score,[4],inactive: 0.714
same,scaled lipid accumulation score,[2],inactive: 0.59
"Cc1cccc(C(=O)NCN2CCN(c3ccccc3C#N)CC2)c1 [PD 168,077 maleate]",scaled lipid accumulation score,[2],inactive: ≤ 0
Cc1cccc(C(=O)NCN2CCN(c3ccccc3C#N)CC2)c1,scaled lipid accumulation score,[2],inactive: 0.009
CCC(=O)Nc1cccc(Oc2nc(Nc3ccc(N4CCN(C)CC4)cc3OC)ncc2Cl)c1,scaled lipid accumulation score,[2],active: 0.997
NC(CO)C(=O)NNCc1ccc(O)c(O)c1O (centres undefined) [Benserazide HCl],scaled lipid accumulation score,[3],inactive: ≤ 0
same,scaled lipid accumulation score,library stock concentration: 7.8 mM,inactive: ≤ -0.006
same,scaled lipid accumulation score,[2],inactive: ≤ 0
NC(CO)C(=O)NNCc1ccc(O)c(O)c1O (centres undefined) [Benserazide hydrochloride],scaled lipid accumulation score,,inactive: ≤ 0
same,scaled lipid accumulation score,library stock concentration: 6.8 mM,inactive: 0.015
same,scaled lipid accumulation score,[2],inactive: ≤ 0

# — the supplement of paper PMC9135407
